From publication PMC6919601, “Identification of Plasmodium dipeptidyl aminopeptidase allosteric inhibitors by high throughput screening” (PLoS ONE, 2019)
Where “and” joins values, the source holds several entries; their conditions need not be identical. Equal values may be shown once. The campaign covered roughly 110,000 compounds. About 230 (0.21%) showed an effect of 50% or more. This is one part of the list.

Each compound was assayed against DPAP1 (Plasmodium falciparum, UniProt Q8IIJ9) (assay: primary screen, percent inhibition; read by cleavage of a fluorogenic dipeptide substrate; higher = more effect of the substance).
DPAP1, sequence (Q8IIJ9 whole entry, looked up): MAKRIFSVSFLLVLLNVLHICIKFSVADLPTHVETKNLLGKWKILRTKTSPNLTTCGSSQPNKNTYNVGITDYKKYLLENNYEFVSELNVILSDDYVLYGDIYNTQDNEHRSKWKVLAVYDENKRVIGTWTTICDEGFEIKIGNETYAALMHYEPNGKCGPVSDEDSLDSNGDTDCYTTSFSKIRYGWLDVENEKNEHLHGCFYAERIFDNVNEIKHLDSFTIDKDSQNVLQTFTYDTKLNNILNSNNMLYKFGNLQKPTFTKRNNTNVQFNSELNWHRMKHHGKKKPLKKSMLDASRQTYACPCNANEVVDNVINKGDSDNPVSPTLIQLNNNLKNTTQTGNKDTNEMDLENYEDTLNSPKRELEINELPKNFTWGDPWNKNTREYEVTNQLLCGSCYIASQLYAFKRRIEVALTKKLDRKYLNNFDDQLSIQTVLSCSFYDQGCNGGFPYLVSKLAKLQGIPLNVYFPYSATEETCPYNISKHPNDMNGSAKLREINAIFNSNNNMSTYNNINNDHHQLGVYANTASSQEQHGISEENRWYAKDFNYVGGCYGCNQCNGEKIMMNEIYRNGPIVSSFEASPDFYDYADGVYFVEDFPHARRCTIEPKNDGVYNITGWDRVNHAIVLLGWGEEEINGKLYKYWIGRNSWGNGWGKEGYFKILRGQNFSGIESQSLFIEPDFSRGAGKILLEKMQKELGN
Set-up: species or system P. falciparum D10 trophozoite lysates; single well
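Further: 30 min substrate incubation versus DMSO and 10 µM JCP410 controls.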

First: COc1ccccc1-c1cc2nc(C)c(CCC(=O)NC(C)CCc3ccco3)c(C)n2n1 (stereo not shown)
Second: CCCCn1/c(=N\C(=O)c2ccco2)c(C(=O)OCC)cc2c(=O)n3ccccc3nc21
The “% Inhibition @ 10 uM” value of the first is higher: -2.25% for the first, -5.57% for the second.

Going from `CCOC(=O)N1CCC(NC(=O)c2csc3c2CCCC3)CC1` to `CCNC(=O)c1c(NC(=O)COc2c(C)cccc2C)sc2c1CCCC2`, the “% Inhibition @ 10 uM” value rises from -5.05% to -1.38%.

Compared with `O=C(CN1C(=O)CSc2ncccc21)NCCCN1CCN(C2CCCCC2)CC1`, `O=C(NC1CCCC1)c1ccccc1-c1nc2ccccc2[nH]1` is lower in “% Inhibition @ 10 uM” value: 1.03% for the first, 0.219% for the second.

Going from `CCOc1ccc(C(=O)Nc2ccccc2F)cc1` to `COc1cccc(N(CC(=O)Nc2ccccc2Br)S(=O)(=O)c2ccc(C)cc2)c1`, the “% Inhibition @ 10 uM” value falls from 3.44% to -0.796%.

First: Cc1nc2c(C)cccc2c(O)c1CCC(=O)O
Second: CC(=O)c1sc(Nc2ccc(C)cc2)nc1C
The “% Inhibition @ 10 uM” value of the first is higher: 4.42% for the first, 1.35% for the second.

Going from `CC(=O)Nc1sc(Cl)cc1C(=O)c1ccccc1` to `CCCNC(=O)/C(=C/c1cn(CC)c2ccccc12)NC(=O)c1ccccc1F`, the “% Inhibition @ 10 uM” value falls from 4.28% to -3.52%.

Compared with `CCN(CC)S(=O)(=O)c1cc(C(N)=O)ccc1C`, `COc1ccc(CCNC(=O)CS(=O)(=O)Cc2nc(-c3ccc(C)cc3)oc2C)cc1OC` is lower in “% Inhibition @ 10 uM” value: 3.48% for the first, -1.89% for the second.

First: COc1cc2oc3cc4c(cc3c(=O)c2cc1OC)CCC(C)(C)O4
Second: COc1cccc(CC2(NC(=O)c3ccccc3)N=C3C(C)=CC=CN3C2=O)c1OC (stereo not shown)
The “% Inhibition @ 10 uM” value of the first is higher: 5.18% for the first, -2.37% for the second.

Going from `CCCn1c2ccccc2c2cnn(CC(=O)NCCc3cccc(C)c3)c(=O)c21` to `CCC(=O)n1nc(-c2cccnc2)nc1NCc1ccccc1`, the “% Inhibition @ 10 uM” value falls from 5.46% to 3.81%.

Compared with `O=[N+]([O-])c1ccc(C2NCCc3c2[nH]c2ccccc32)cc1` (stereo not shown), `O=C(CSc1nc2cc(C(F)(F)F)ccc2n1C1CC1)N1CCc2ccccc2C1` is lower in “% Inhibition @ 10 uM” value: 1.21% for the first, 0.776% for the second.

Compared with `CCn1c(CN2CCOCC2)nc2c1c(=O)[nH]c(=O)n2C`, `CCCCCSc1nc2c(c(=O)[nH]c(=O)n2C)n1CC` is higher in “% Inhibition @ 10 uM” value: -1.21% for the first, 3.96% for the second.

Going from `O=S(=O)(O)CCCSc1nc2ccccc2s1` to `C=CCSc1nnc(NC(=O)Cc2coc3c(C)c(C)ccc23)s1`, the “% Inhibition @ 10 uM” value rises from -0.053% to 7.17%.

First: O=C(/C=C/c1ccco1)NC(=S)N1CCOCC1
Second: CC(=O)N1N=C2C3CCN(CC3)C2C1c1cccc(F)c1 (stereo not shown)
The “% Inhibition @ 10 uM” value of the first is lower: -1.69% for the first, 2% for the second.

In the case of `Cc1ccc(-c2csc(NC(=O)c3ccco3)n2)cc1`, the “% Inhibition @ 10 uM” value was 2.67%.

With `CCOC(=O)/C=C/c1c(C)[nH]c(=O)[nH]c1=O` the “% Inhibition @ 10 uM” value was -6.7% and 0.484%.
